Results: PubChem BioAssay AID686979 (National Center for Advancing Translational Sciences (NCATS), 2013)
Among all 420,000 compounds or so, about 50,000 (12%) were called active. This list was built around the results that the source calls inconclusive (neither active nor inactive); the mix of calls is not that of the screen. The call rests on the fitted dose curve; in most records, active means well fitted inhibition curve with a large enough effect; inconclusive means small, poorly fitted or top-dose-only effect; inactive means flat fitted curve, though single readings scatter. Potencies of inconclusive entries are left out as doubtful fits. A structure can be active in one record and inactive in another.

assay: qHTS for Inhibitors of human tyrosyl-DNA phosphodiesterase 1 (TDP1): qHTS in cells in presence of CPT; conditions: chicken DT40 Tdp1-/-;hTDP1 cells + 20 nM CPT, ATP luminescence, 48 h; activity change, negative = growth inhibition: at 46.2 µM (top of the series); further: nearly all actives have a fitted effect of over 55% in size
How it was run: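 Chicken DT40 Tdp1-/- cells stably complemented with human TDP1 were seeded at 400 cells/well in medium containing 20 nM camptothecin, exposed to pin-transferred compounds, and grown at 37 °C for at least 48 hr. Viability was read as ATP luminescence.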
On the % scale 0 is the no-effect control and ±100 the full control effect; potency means the concentration at half of the fitted maximal effect; tags describe the fitted curve by direction and shape.

Row | SMILES | Potency | activity change, negative = growth inhibition
1 | CCOC(=O)[C@H]1[C@H]2COc3cc(OC)ccc3[C@@H]2N2C(=O)CN(Cc3ccc(C)cc3)C(=O)[C@@]12C | inconclusive [inhibitor, single point] | 
2 | COc1ccc(C=NN=C2c3ccccc3-c3ccccc32)cc1OC | inconclusive [inhibitor, single point] | 
3 | Cc1ccc(Cl)cc1S(=O)(=O)N1CCC(C(=O)NC2CCN(Cc3ccccc3)CC2)CC1 | inconclusive [inhibitor, single point] | 
4 | CCC(C)NC(=S)N(Cc1cc2cc(C)ccc2n2nnnc12)CC(C)(C)NC(C)C (stereo unspecified) | active: 16.4 µM | 
5 | Cc1ccc(S(=O)(=O)N(C)c2ccccc2C(=O)NC2CCCC2)cc1 |  | inactive: -28.7%
6 | O=C(Cn1ncn2nc(-c3cccs3)cc2c1=O)NCc1cccc(Br)c1 |  | inactive: -20.4%
7 | COc1cc(CN2CCN(C(=O)CC(C)C)CC2)cc(OC)c1O | inconclusive [inhibitor, single point] | 
8 | CCc1cc2c3c(c1)C1(C(=O)N3C(C)(C)C=C2C)C(C#N)=C(N)Oc2[nH]c(=O)[nH]c(=O)c21 (stereo unspecified) | active: 3.26 µM | 
9 | Cc1ccccc1OCc1nc(-c2ccc(NC(=O)c3ccc4c(c3)OCO4)cc2)no1 | inconclusive [inhibitor, single point] | 
10 | CCC(CC)COC(=O)C(C#N)c1nc2ccccc2nc1N1CCN(CC)CC1 (stereo unspecified) | active: 20.6 µM | 
11 | O=C(NCc1ccco1)C1Cc2c(-c3cccc(F)c3)ccnc2O1 (stereo unspecified) | active: 0.82 µM | 
12 | Nc1c(C(=O)c2ccc(F)cc2)sc(Nc2ccccc2F)c1S(=O)(=O)c1ccc(Br)cc1 | active: 5.17 µM | 
13 | CCC1=[N+](CC(=O)c2ccc(Br)cc2)CCn2c(C)ccc21 | inconclusive [inhibitor, single point] | 
14 | Cc1nn(C)c(C)c1NS(=O)(=O)c1c(C)n[nH]c1C |  | inactive: -3.45%
15 | Cc1ccc(S(=O)(=O)N2CCCCC2)cc1C(=O)N(C)CC(=O)Nc1cccc(F)c1 |  | inconclusive: -30.2% [inhibitor]
16 | COc1ccc2nc(C)cc(N3CCN(c4ccccc4)CC3)c2c1 | active: 20.6 µM | 
17 | CCOc1ccc(N/C(SCc2cccc([N+](=O)[O-])c2)=C(/C#N)C(N)=O)cc1 | inconclusive [inhibitor, partial curve, poor fit] | 
18 | Cc1cccc(CNC(=O)c2ccc(NC(=O)N3CC(C)Sc4ccccc43)cc2)c1 (stereo unspecified) | active: 20.6 µM | 
19 | COc1ccccc1N1CCN(c2ncnc3sc(C)c(-c4ccccc4)c23)CC1 | active: 23.1 µM | 
20 | COc1cccc(C(=O)OCC(=O)NCCC2=CCCCC2)c1 |  | inactive: -15.9%
21 | O=C(Nc1ncnc2sc3c(c12)CCCCC3)c1ccco1 |  | inconclusive: -34.4% [inhibitor]
22 | CCCCCc1cc(=O)oc2c(C(CCN3CCCC(C)C3)c3ccc(N(C)C)cc3)c(OC)cc(OC)c12 (stereo unspecified) | inconclusive [inhibitor, single point] | 
23 | COc1ccc(OC)c(Nc2nc(-c3c(C)nc4ncccn34)cs2)c1 | inconclusive [inhibitor, single point] | 
24 | COc1ccc(Cc2nc3ccc(C(=O)NCCc4ncccc4C)cc3o2)cc1OC | active: 20.6 µM | 

Row | SMILES | Potency | activity change, negative = growth inhibition
25 | O=P(O)(CP(=O)(c1ccccc1)c1ccccc1)c1ccccc1 | inconclusive [inhibitor, full curve, poor fit] | 
26 | CCCCC(=O)N(C)c1c(CC)nc2c(OCC(=O)c3ccc(Cl)cc3Cl)cccn12 | active: 23.1 µM | 
27 | c1ccc2c(CSCCc3ccncc3)cccc2c1 | active: 23.1 µM | 
28 | Cc1ccc(NC(=O)Cn2c(=O)n(-c3ccccc3)c(=O)c3ccc(C(=O)NCc4ccc5c(c4)OCO5)cc32)c(C)c1 |  | inconclusive: -30.2% [inhibitor]
29 | COc1ccc(/C=C2/SC(=O)N(CCNC(=O)C3COc4ccccc4O3)C2=O)cc1 (stereo unspecified) | inconclusive [inhibitor, single point] | 
30 | Cc1ccsc1/C=N\NC(=O)c1cc(C(C)(C)C)[nH]n1 |  | inactive: -24.4%
31 | COc1ccc(CCNC(=O)C2CCN(C(=O)c3ccc(Cl)cc3)CC2)cc1OC |  | inactive: -15.4%
32 | COc1ccc(NC(=O)[C@@H]2CCCN2S(=O)(=O)c2cccc3cccnc23)cc1 | inconclusive [inhibitor, partial curve] | 
33 | CC(C)CN(CCNC(=O)CN1C(=O)CSc2ccc(S(=O)(=O)N3CCOCC3)cc21)CC(C)C | active: 18.4 µM | 
34 | CCCNC(=O)c1cc(S(=O)(=O)N2CCc3ccccc32)ccc1F | active: 5.17 µM | 
35 | Cc1cc(-c2ccc(Cl)cc2)c2cnn(C(C)C)c2n1 | inconclusive [inhibitor, single point] | 
36 | O=c1[nH]nc(Cc2ncc(C(F)(F)F)cc2Cl)c2ccccc12 | inconclusive [inhibitor, single point] | 
37 | COc1ccccc1/C=C/C(=O)OCC(=O)NC(=O)NC1CCCC1 |  | inactive: 4.94%
38 | COc1ccccc1C=NN=C(NN=Cc1ccccc1OC)NN=Cc1ccccc1OC | inconclusive [inhibitor, single point] | 
39 | O=C(Nc1c(-c2ccc(F)cc2)nc2ccccn12)c1ccccc1F |  | inactive: -21%
40 | c1ccc(CN(Cc2ccccc2)C(c2ccnc3ccccc23)c2nnnn2-c2ccc3c(c2)OCCO3)cc1 (stereo unspecified) | inconclusive [inhibitor, single point] | 
41 | CCOC(=O)c1c(C)[nH]c(C2=NNC(=Nc3ccccc3OC)SC2)c1C | inconclusive [inhibitor, partial curve, poor fit] | 
42 | CCN(CCCNC(=O)CCc1nc(-c2ccc(OC)cc2)no1)c1cccc(C)c1 | inconclusive [inhibitor, single point] | 
43 | COc1ccccc1CNC(=O)c1ccc2c(c1)CCN2S(=O)(=O)c1ccccc1 | inconclusive [inhibitor, single point] | 
44 | N#Cc1ccccc1S(=O)(=O)N1CCN(C(=O)CCNS(=O)(=O)c2ccc(Cl)cc2)CC1 |  | inactive: -22.9%
45 | Cc1n[nH]c(C)c1S(=O)(=O)N(CC(=O)N1CCc2ccccc21)c1ccc(C(C)C)cc1 | inconclusive [inhibitor, single point] | 
46 | COc1cc(/C=N/NC(=O)CCN2CCN(C(c3ccccc3)c3ccccc3)CC2)ccc1O | active: 13 µM | 
47 | CS(=O)(=O)Nc1ccc(C(=O)Nc2ccc(S(=O)(=O)N3CCCC3)cc2)cc1 |  | inactive: -9.8%
48 | Cc1ccc(NC(=O)c2sc3nc4c(c(-c5ccco5)c3c2N)CCC4)cc1 | inconclusive [inhibitor, single point] | 

Row | SMILES | Potency | activity change, negative = growth inhibition
49 | O=C(/C=C\c1ccc2c(c1)OCO2)NC1CC(=O)N(c2cccc(F)c2)C1 (stereo unspecified) | inconclusive [inhibitor, single point] | 
50 | COc1ccc(CN2CCc3ccccc3C2)c(OC)c1 |  | inactive: -0.429%
51 | CC(C)N1C(=O)S/C(=C/c2ccc(Sc3nc4ccccc4[nH]3)o2)C1=O | active: 14.6 µM | 
52 | CCOC(=O)c1cccc(NC(=O)c2ccc3nc(Cc4ccccc4)oc3c2)c1 | active: 23.1 µM | 
53 | COc1ccc(C2=NN(c3ccc(C(=O)O)cc3)C(c3ccc(OC)c(OC)c3)C2)cc1 (stereo unspecified) |  | inactive: -22.3%
54 | COc1cccc(CC(NC(C)=O)C(=O)NC2CCN(C(=O)c3ccc(Cl)cc3)CC2)c1 (stereo unspecified) |  | inactive: -21.9%
55 | Cn1c(Cn2nnc3ccccc32)nnc1SCC(=O)c1ccccc1F | inconclusive [inhibitor, single point] | 
56 | CC1(C(=O)NCc2cccc(C(F)(F)F)c2)CCN1CCc1ccccc1 (stereo unspecified) | inconclusive [inhibitor, single point] | 
57 | Nc1cccc(Oc2ccc3c(c2)C(=O)NC3=O)c1 |  | inactive: 22.3%
58 | O=c1ccn([C@@H]2O[C@H](CNCc3ccc(-c4cc(C(F)(F)F)ccc4Cl)o3)[C@@H](O)[C@H]2O)c(=O)[nH]1 | inconclusive [inhibitor, partial curve] | 
59 | N#C/C(=C1\C(=O)Nc2c(Cl)cc(Cl)cc21)c1nnc2n1CCCCC2 | inconclusive [inhibitor, single point] | 
60 | COc1ccc(CCN(C)Cc2cccc3ccccc23)cc1OC | inconclusive [inhibitor, partial curve] | 
61 | Cc1ccc(-n2c3c(c(=O)[nH]c2=O)C(NC(=O)c2ccccc2C)(C(F)(F)F)C(=O)N3)cc1 (stereo unspecified) | active: 13 µM | 
62 | COc1ccc(CNC(=O)c2csc(Cc3ccccc3)n2)cc1 |  | inactive: -2.58%
63 | Cn1c(N)c(C(C[N+](=O)[O-])c2ccccc2Cl)c(=O)n(C)c1=O (stereo unspecified) | active: 4.11 µM | 
64 | COc1ccccc1N1CCN(C(=O)CSc2n[nH]c(-c3ccccc3)n2)CC1 | inconclusive [inhibitor, single point] | 
65 | C=CCC1[C@H](C)[C@H]2[C@@H]3CC[C@@H](C3)[C@H]2CN1S(=O)(=O)c1ccc(C)cc1 (stereo partly specified) | active: 18.4 µM | 
66 | COc1ccc(N(CC(=O)NC2CCS(=O)(=O)C2)S(=O)(=O)c2ccc(Cl)c(Cl)c2)cc1 (stereo unspecified) |  | inactive: -20.1%
67 | Cc1cccc(NC(=O)CSC(N)=O)c1C | active: 25.9 µM | 
68 | COc1cccc(/C=C/c2onc(C)c2S(=O)(=O)N2CCC(C(=O)N3CCC(C)CC3)CC2)c1 | inconclusive [inhibitor, single point] | 
69 | NC(=O)c1ccsc1NC(=O)COC(=O)COc1ccc(C=O)cc1 |  | inactive: -1.3%
70 | Cc1nn(C(C)C(=O)N2CCOCC2)c(=O)c2nn(-c3ccccc3)c(C)c12 (stereo unspecified) |  | inactive: 8.07%
71 | CN1CCc2c(sc(NC(=O)C3COc4ccccc4O3)c2C(N)=O)C1 (stereo unspecified) | inconclusive [inhibitor, single point] | 
